The other results are listed elsewhere or left out. Shown are side measurements of this screen, not its main read-out; they come without a call. Compounds called inactive in the main read-out are mostly missing here.
Assay: NALP1 inflammasome inhibitors in reconstituted yeast, colorimetric, S. cerevisiae, triplicate retest (AID 2071)
Conditions: S. cerevisiae NALP1/ASC/caspase-1 growth, X-gal OD620, 72 h, at 20 µM, stronger effect = higher value

Row | Compound | inhibition [%]
1 | COc1ccc(CNCCC(c2ccc(F)cc2)c2ccc(OC)cc2)cc1 (centres undefined) | 92.5
2 | O=c1sc(Nc2ccccc2)nc2ccsc12 | 66.5
3 | CCN1CCN(C(=S)Nc2ccc(Cl)c(Cl)c2)CC1 | 62.7
4 | COc1ccc(C2NCCc3c2[nH]c2ccccc32)cc1CSc1nc2ccccc2s1 (centres undefined) | 110
5 | CC(C)c1ccc(CN2CCN(C(=O)CCl)CC2)cc1 | 98.5
6 | O=C(CN1CCSC1=NCc1ccccc1)c1ccc(Cl)c(Cl)c1 | 66
7 | Cc1ccc2cc3cc(C(=O)NCCCN4CCc5ccccc5C4)oc3nc2c1 | 56.2
8 | Cc1cccc(Cn2c(C(C)(C)C)cc3cccnc32)c1 | 54.9
9 | Oc1c(CN2CCCCC2)cc(Br)c2cccnc12 | 105
10 | CC(C)CC(=O)/C(=C\c1ccc(Cl)cc1Cl)n1cncn1 | 85.2
11 | CSc1ccc(/C=C/C(=O)c2ccc(O)cc2)cc1 | 50.9
12 | CCCCCCCCCCCCCCCC[n+]1cccc(C(=O)N(CC)CC)c1 | 103
13 | CCOC(=O)C1=Nc2ccccc2C1=[N+]=[N-] | 102
14 | Nc1c2c(nc3sc4c(c13)CCCCC4)CCCCC2 | 71.2
15 | N#C/C(=C\c1ccc([N+](=O)[O-])o1)c1nc2ccccc2[nH]1 | 76.3
16 | COc1ccc(CNCC(O)(c2ccccc2)c2ccc(Cl)cc2)cc1 (centres undefined) | 63.7
17 | O=[N+]([O-])c1ccc(-c2ccn[nH]2)o1 | 69.1
18 | CCOC(=O)C1CCCN(C2CC(=O)N(c3cccc(C(F)(F)F)c3)C2=O)C1 (centres undefined) | 106
19 | O=C(CCl)Nc1cc(-c2ccccc2)nn1-c1ccccc1 | 51.1
20 | Cc1cc(N2C(=O)C=CC2=O)c([N+](=O)[O-])cc1C | 89.8
21 | C#C[C@]1(O)CC[C@H]2[C@@H]3CCc4cc(O)ccc4[C@H]3CC[C@@]21C | 52.9
22 | CN1CCN(C(=S)Nc2ccc(Cl)c(Cl)c2)CC1 | 59.6
23 | Fc1ccc(Nc2ccnc(Nc3ccc(F)cc3)n2)cc1 | 62.5
24 | O=C(O)C1C2C=CC(C2)C1C(=O)NCc1ccc(Cl)c(Cl)c1 (centres undefined) | 51.3

Row | Compound | inhibition [%]
25 | Cc1nc2ccc(NC(=O)c3cc([N+](=O)[O-])cc([N+](=O)[O-])c3Cl)cc2s1 | 89.7
26 | Cc1cccc(N2C(=O)CC(Sc3ccccc3C(=O)O)C2=O)c1 (centres undefined) | 110
27 | O=C1C=CC(=O)N1CCCCCCN1C(=O)C=CC1=O | 101
28 | Clc1ccc(Nc2ccc(NCc3ccccc3)nn2)cc1 | 91.6
29 | O=C(Nc1ccccc1)N1CCc2ccccc2C1 | 65.5
30 | CCOc1ccc(C(=O)C(CCC(CN(C)C)C(=O)c2ccc(OCC)cc2)CN(C)C)cc1 (centres undefined) | 90.4
31 | NNC(=S)NCc1cccnc1 | 71
32 | CCOC(=O)c1c(-c2ccccc2)nc2ccccn12 | 111
33 | O=C(Nc1cccc(N=Cc2cc(Br)cc(Br)c2O)c1)c1ccco1 | 64.8
34 | Cc1cc2ncn(/N=C/c3ccc([N+](=O)[O-])s3)c2cc1C | 78.1
35 | CCN1/C(=C/c2ccc3cc(C)ccc3[n+]2CC)Sc2ccccc21 | 105
36 | COC(=O)c1ccccc1SC1CC(=O)N(c2ccccc2)C1=O (centres undefined) | 94.9
37 | CC1CCCN(CCCOc2ccc(Cl)cc2Br)C1 (centres undefined) | 54
38 | O=CC1=C(c2ccccc2)Oc2ccccc2O1 | 61
39 | CN1CCc2cccc3c2[C@@H]1Cc1ccc(O)c(O)c1-3 | 108
40 | O=C(Cc1ccc(Cl)cc1)Oc1cccc2cccnc12 | 91.6
41 | O=C1C=CC(=O)N1c1ccc(OC(F)F)cc1 | 116
42 | CCCNC(=O)c1nnsc1S(=O)c1ccc(Cl)cc1 (centres undefined) | 111
43 | O=C(Oc1cccc2cccnc12)c1ccc(N2C(=O)C3C4CCC(C4)C3C2=O)cc1 (centres undefined) | 73.2
44 | CNc1nc(SCc2ccc(C)cc2)nc2c1CCCC2 | 102
45 | Cc1cc(C)c(S(=O)(=O)Nc2cc(SCC(=O)O)c(O)c3ccccc23)cc1C | 62.5
46 | CN1CCN(S(=O)(=O)c2ccc(NC(=S)NC(=O)C(C)(C)C)cc2)CC1 | 73.6
47 | Clc1cccc(OCCN2CCN(CCOc3cccc(Cl)c3)CC2)c1 | 100
48 | O=S(=O)(CC(CN1CCCC1)N1CCCC1)c1ccc2ccccc2c1 (centres undefined) | 99.6

Row | Compound | inhibition [%]
49 | Oc1c(I)cc(Cl)c2cccnc12 | 60.4
50 | Cc1ccc(N2C(=O)CC(Sc3ccccc3C(=O)O)C2=O)cc1 (centres undefined) | 114
51 | CCCOc1ccc(C(=O)C(CN2CCCC2)c2ccccc2)cc1 (centres undefined) | 89.3
52 | OC(CN1CCCCC1)Cn1c2ccc(Cl)cc2c2cc(Cl)ccc21 (centres undefined) | 103
53 | CCC(C)c1ccc(OCCn2ccnc2)cc1 (centres undefined) | 72.5
54 | COc1ccc2cnn(-c3ccc(C)cc3)c(=O)c2c1OC | 53.6
55 | CC(=O)Nc1sc2c(c1-c1nc3ccccc3s1)CCN(C(C)C)C2 | 105
56 | CN(C)c1ccc(N2C(=O)CC(Sc3ccccc3C(=O)O)C2=O)cc1 (centres undefined) | 112
57 | Cc1ccn2cc(-c3ccc(NC(=O)c4ccco4)cc3)nc2c1 | 57.9
58 | O=[N+]([O-])c1cc(S(=O)(=O)N2CCCCCC2)ccc1F | 52.6
59 | CN(C)c1ccc(N=C/C=C2/N(C)c3ccccc3C2(C)C)cc1 | 83.1
60 | CCOc1ccc(C(=O)C(CN2CCOCC2)c2ccccc2)cc1 (centres undefined) | 108
61 | CCOc1cc(CNC2CCCC2)cc(Cl)c1OCc1ccc(F)cc1 | 105
62 | Cc1ccccc1Nc1cc(C)c2c(O)cccc2n1 | 56.4
63 | Clc1ccc2c(N/N=C/c3cccc(Br)c3)ccnc2c1 | 59
64 | C1CCC(C(CC2CCCCN2)C2CCCCC2)CC1 (centres undefined) | 106
65 | Clc1ccc2c(N/N=C/c3ccc(Br)cc3)ccnc2c1 | 56.1
66 | COc1ccc(NCc2ccc([N+](=O)[O-])s2)cc1 | 74.5
67 | COc1ccc(CCNCc2ccc(OCc3ccccc3)cc2)cc1 | 107
68 | O=C(NN1C(=O)c2cc(Br)ccc2NC1c1cc(Br)cc(Br)c1O)c1ccncc1 (centres undefined) | 71.4
69 | O=C(O)c1ccc(S(=O)(=O)/N=C2\C=C(Nc3ccccc3F)C(=O)c3ccccc32)cc1 | 66
70 | COc1cccc(F)c1C(C[N+](=O)[O-])c1c(N)n(C)c(=O)n(C)c1=O (centres undefined) | 117
71 | CN(C)CCCN(C(=O)c1ccc2c(c1)CCCC2)c1nc2ccc(F)cc2s1 | 101
72 | O=C(Nc1nc(-c2ccccn2)cs1)c1ccc(Cl)s1 | 82.7

Row | Compound | inhibition [%]
73 | Cc1ccc2c(Cl)c(C)c(N3CCCCC3)nc2n1 | 56.8
74 | COC(=O)c1ccc(Oc2ccc(S(=O)(=O)N3CCCCC3)cc2N)cc1 | 63.8
75 | CCOC(=O)COc1ccc2ccccc2c1/C=C/[N+](=O)[O-] | 68.9
76 | Cc1ccc(/C=N/Nc2ccnc3cc(Cl)ccc23)c(C)c1 | 105
77 | CCCCCCCCCCCCCCCCn1cc[n+](CC(C)=O)c1 | 101
78 | CCOCCCNCc1ccc(OCc2ccccc2Cl)cc1 | 57.6
79 | CCCCCOc1ccc(Br)cc1CSC(=N)N | 85.3
80 | CC(NCCC(c1ccccc1)c1ccccc1)c1ccccc1 (centres undefined) | 91.2
81 | CCOC(=O)/C=C/C(=O)Nc1nccs1 | 55.2
82 | Cc1ccc2sc(N(CCCN(C)C)C(=O)CCS(=O)(=O)c3ccccc3)nc2c1C | 106
83 | CNC(=O)c1nnsc1S(=O)c1ccc(Cl)cc1 (centres undefined) | 108
84 | COc1ccccc1OCC(=O)NCCSCc1cccc(Cl)c1 | 53.6
85 | COCCCN(CCCN)Cc1ccco1 | 81.1
86 | CCCCCOc1ccc(Br)cc1/C(C)=N/NC1=NCCN1 | 105
87 | COc1ccc2[nH]c3c(C)c4ccncc4c(C)c3c2c1 | 97.2
88 | Cc1ccc(NC(=O)/C=C\C(=O)NCC(=O)O)cc1C | 112
89 | CN(C)CCN(C(=O)/C=C/c1cccs1)c1nc2c(F)cc(F)cc2s1 | 80.7
90 | CC[n+]1c(/C=C/N(C)c2ccccc2)n(-c2ccccc2)c2ccc(-c3nc4ccccc4s3)cc21 | 103
91 | Cc1cc(Cl)c(OCCCn2ccnc2)c(Br)c1 | 64.3
92 | COc1ccc(OC)c(S(=O)(=O)Nc2ccc(O)c3ccccc23)c1 | 105
93 | Cc1cccc(/C=C/C(=O)c2ccc(NC3=NCCCS3)cc2)c1 | 102
94 | COc1ccccc1C(C[N+](=O)[O-])c1c(N)n(C)c(=O)n(C)c1=O (centres undefined) | 114
95 | CC1CCCN(CCOCCOc2ccc(Br)cc2Cl)C1 (centres undefined) | 54.3
96 | N#Cc1ccc(NC(=O)Nc2ccc(Cl)cc2)cc1 | 72.4

Row | Compound | inhibition [%]
97 | CCCCCCCCCCCCCCCCn1cc[n+](C)c1 | 100
98 | Cc1[nH]n(-c2ccccc2)c(=O)c1C(C[N+](=O)[O-])c1ccc(Cl)cc1 (centres undefined) | 96.6
99 | COc1ccc(NCc2ccc([N+](=O)[O-])s2)c(OC)c1 | 58.6
100 | CN(C)CCCN(C(=O)c1ccc2c(c1)CCCC2)c1nc2ccc(Cl)cc2s1 | 109
101 | CC[n+]1c(/C=C2\Sc3ccccc3N2C)ccc2cccc(C)c21 | 101
102 | COc1ccccc1N1CCN(CCCCCCOc2ccc(F)cc2)CC1 | 60.6
103 | O=C(N1CCN(c2ccccn2)CC1)C(Cl)(Cl)Cl | 57.2
104 | Cn1ncc(S(=O)(=O)Cc2ccccc2)c(Cl)c1=O | 114
105 | Cc1onc(-c2ccccc2Cl)c1C(=O)N1C=CC(C(F)(F)F)=NCC1 | 81.3
106 | Cc1sc(N)nc1-c1ccc(Oc2ccccc2)cc1 | 54.3
107 | CCOC(=O)CNC(c1ccccc1)c1cc(Br)ccc1NC(=O)CCN1CCOCC1 (centres undefined) | 92.6
108 | CCCCCCC(=O)N(O)C1CC(=O)N(Cc2ccccc2)C1=O (centres undefined) | 51.1
109 | CCCCCCCCCCCCCCCC[n+]1cccc2ccccc21 | 83.3
110 | CCOC(=O)c1ccc(N2C(=O)CC(N3CCCC(C)C3)C2=O)cc1 (centres undefined) | 85.5
111 | CC(C)(C)C1=CC(=O)C(=O)C(C(C)(C)C)=C1 | 82
112 | O=C1CSC(=S)N1c1cccc(O)c1 | 108
113 | O=C(CCN1CCc2ccccc2C(c2ccccc2)C1)c1ccc2c(c1)OCCO2 (centres undefined) | 61.6
114 | O=C(N/N=C/c1cc(Cl)ccc1O)c1ccc(Br)cc1 | 51.8
115 | Cn1nc(-c2ccc(Cl)cc2)nc2c(=O)n(C)c(=O)nc1-2 | 98
116 | COCCN=C1Sc2nc3ccc(C)cc3cc2CN1Cc1ccco1 | 62.5
117 | COc1cc(NC(=O)c2cccs2)cc(OC)c1 | 71.3
118 | CN1c2ccccc2Sc2cc(N)ccc21 | 59.9
119 | Cc1nc(C)c(/C(O)=C/c2nc3ccccc3oc2=O)s1 | 59.3
